# Several values for one entry are separate records, joined by “and”; a condition that tells them apart may be missing. Equal entries are not always repeated. The campaign covered roughly 350,000 compounds. About 31,000 (8.9%) were called active. Inconclusive means that the source gave no clear call. Such entries were picked first, then a sample of the others. Calls come from the whole dose curve; as a rule, active = well fitted inhibition curve with a large enough effect; inconclusive = small, poorly fitted or top-dose-only effect; inactive = no such curve, though single readings can be large or run the other way. Potencies of inconclusive entries are doubtful fits and often do not repeat. A structure can be active in one record and inactive in another.
# Biological target: Histone-lysine N-methyltransferase EHMT2 (Homo sapiens) (UniProt Q96KQ7)
# Experiment: qHTS Assay for Inhibitors of Histone Lysine Methyltransferase G9a; note: nearly all actives have a fitted effect of over 75% in size
# Details: G9a H3K9 monomethylation, AlphaScreen, 2 h; activity, negative = inhibition: at 59 µM (top of the series) unless noted
# Outline: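 Chemiluminescent proximity detection of H3K9 monomethylation, read after 10 min bead incubation in the dark. Reaction: 20 nM G9a, 500 nM biotin-H3K9 peptide, 20 uM SAM cofactor, 2 h, room temperature, following 15 min enzyme-compound preincubation.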
# % is set by controls: 0 for no effect and ±100 for the full control effect; potency is the fitted concentration of half-maximal effect; tags give direction and shape of the fitted curve.
# Sequence of UniProt Q96KQ7 (Q96KQ7 whole entry, looked up): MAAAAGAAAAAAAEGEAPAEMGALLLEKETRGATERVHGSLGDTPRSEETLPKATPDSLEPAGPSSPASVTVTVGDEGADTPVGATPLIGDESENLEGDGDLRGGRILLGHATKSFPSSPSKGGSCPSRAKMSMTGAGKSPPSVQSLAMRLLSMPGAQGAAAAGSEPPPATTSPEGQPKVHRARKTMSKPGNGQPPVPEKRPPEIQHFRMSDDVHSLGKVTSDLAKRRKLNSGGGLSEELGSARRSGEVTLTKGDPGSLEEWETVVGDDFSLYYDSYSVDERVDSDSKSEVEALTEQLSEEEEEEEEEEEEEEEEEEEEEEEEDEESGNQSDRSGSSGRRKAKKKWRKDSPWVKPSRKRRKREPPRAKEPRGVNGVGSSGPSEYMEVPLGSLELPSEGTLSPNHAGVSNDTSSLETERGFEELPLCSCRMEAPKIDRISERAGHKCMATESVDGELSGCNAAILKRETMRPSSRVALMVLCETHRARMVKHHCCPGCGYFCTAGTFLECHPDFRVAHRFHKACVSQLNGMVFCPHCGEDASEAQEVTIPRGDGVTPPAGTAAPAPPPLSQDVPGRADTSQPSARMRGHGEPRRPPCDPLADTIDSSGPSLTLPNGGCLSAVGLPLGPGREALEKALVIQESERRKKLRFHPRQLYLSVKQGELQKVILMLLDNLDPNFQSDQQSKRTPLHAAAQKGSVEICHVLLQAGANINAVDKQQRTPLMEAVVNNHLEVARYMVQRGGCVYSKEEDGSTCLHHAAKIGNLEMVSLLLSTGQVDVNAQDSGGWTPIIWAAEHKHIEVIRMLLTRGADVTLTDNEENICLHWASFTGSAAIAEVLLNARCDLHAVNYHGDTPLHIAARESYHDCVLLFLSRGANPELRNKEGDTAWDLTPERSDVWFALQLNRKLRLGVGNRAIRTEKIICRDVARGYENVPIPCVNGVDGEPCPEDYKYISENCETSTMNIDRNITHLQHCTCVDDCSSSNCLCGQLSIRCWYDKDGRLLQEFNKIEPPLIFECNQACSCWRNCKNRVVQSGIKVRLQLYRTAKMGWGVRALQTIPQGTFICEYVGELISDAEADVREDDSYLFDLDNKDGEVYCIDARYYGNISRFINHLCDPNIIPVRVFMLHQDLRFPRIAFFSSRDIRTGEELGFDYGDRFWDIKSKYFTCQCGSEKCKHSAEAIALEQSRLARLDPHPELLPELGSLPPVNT
Structure (SMILES),Potency,"activity, negative = inhibition"
O=c1c2ccccc2nc(-c2ccco2)n1-c1ccccc1,"inconclusive: 28.2 µM [inhibitor, single point]",–
O=C1CC(c2cccnc2)=NN1c1ccc(Cl)cc1Cl,"inconclusive: 89.1 µM [inhibitor, partial curve, poor fit]",–
COP(=O)(OC)C1(O)C(=O)Nc2ccc(Br)cc21 (stereo not drawn),active: 8.91 µM,–
O=C1NC(=O)C2(Cc3ccccc3N3CCCC32)C(=O)N1c1ccccc1 (stereo not drawn),active: 28.2 µM,–
COc1cccc(-n2c(/C=C/c3ccccc3O)nc3ccccc3c2=O)c1,–,inactive: -10.9%
CC(=O)OCC(=O)[C@@H]1CC[C@H]2[C@H]3CC[C@H]4C[C@@H](O)CC[C@]4(C)[C@@H]3C(=O)C[C@@]12C,–,inactive: 1.59% [at 5.15 µM]
O=C(N/N=C/c1c(O)n(CCc2ccccc2)c(=O)[nH]c1=O)c1ccccc1O,active: 70.8 µM,–
COc1ccc2c(c1)CCC1C2CC[C@@]2(C)C1CC[C@@H]2NCCCCCCN1C(=O)C=CC1=O (stereo partly drawn),active: 2.51 µM,–
C=CCN1CC[C@@]2(C)c3cc(O)ccc3CC1[C@@H]2C,inactive and active: 44.7 µM,–
COc1cc(CN2C(=O)NC(=O)C3(Cc4cc(C)ccc4N(C)C3)C2=O)cc(OC)c1 (stereo not drawn),"inconclusive: 3.55 µM [inhibitor, partial curve, poor fit]",–
COc1c(O)c2c(=O)cc(OC)c3c4c(OC)cc(=O)c5c(O)c(OC)c(C[C@@H](C)OC(=O)c6ccccc6)c(c(c1C[C@@H](C)OC(=O)Oc1ccc(O)cc1)c23)c54,"inconclusive: 8.91 µM [inhibitor, single point]",–
CN1C(=O)C(=Cc2ccc(OCCN(C)c3ccccn3)cc2)C(=O)N(C)C1=O,"inconclusive: 89.1 µM [inhibitor, single point]",–
CS(=O)(=O)N1CCC2(CCCN(Cc3ccncc3)C2)CC1,–,inactive: 9.34% [at 12.7 µM]
CC(=NCCc1ccccc1)c1c(O)[nH]c(=O)[nH]c1=O,"inconclusive: 56.2 µM [inhibitor, single point]",–
O=[N+]([O-])c1ccccc1CNCCc1ccc(F)cc1,active: 7.94 µM,–
O=c1[nH]c(=S)n(-c2cccc(Cl)c2)c(O)c1/C=N/N1CCOCC1,"inconclusive: 50.1 µM [inhibitor, partial curve]",–
CN(C)CCc1nc2ccccc2c(=O)n1-c1ccccc1,–,inactive: -26% [at 12.7 µM]
O=C(N=Nc1c(O)[nH]c(=O)[nH]c1=O)C1COc2ccccc2O1 (stereo not drawn),active: 44.7 µM,–
C=C1C([C@@]2(C)C(OC(C)=O)CC(=O)O[C@@](C)(COC(C)=O)C2CC(=O)OC)C(OC=O)C(OC(=O)C(OC(C)=O)C(C)CC)[C@]2(C)C(c3ccoc3)CC(=O)C12O (stereo partly drawn),–,inactive: -27.9% [at 2.33 µM]
CC12CN3CC(C)(CN(C1)C3c1ccncc1)C2=O (stereo not drawn),–,inactive: 8.52%
Cc1ccc(S(=O)(=O)NC(CC(=O)N2CCC3(CC2)OCCO3)c2ccco2)cc1 (stereo not drawn),"inconclusive: 25.1 µM [inhibitor, single point]",–
Cn1cc(C(=O)NCc2ccccc2)c2ccccc21,–,inactive: 9.96% [at 102 µM]
CC(OC(=O)COc1ccc(Nc2ccccc2)cc1)C(=O)N(C)c1ccccc1 (stereo not drawn),active: 39.8 µM,–

Structure (SMILES),Potency,"activity, negative = inhibition"
O=C(C/C=N\OCc1c(Cl)cccc1Cl)Oc1ccc(Cl)cc1Cl,"inconclusive: 89.1 µM [inhibitor, single point]",–
CN1CC[C@@]2(CCCN(C(=O)Oc3ccccc3)C2)C1,–,inactive: -3.25% [at 12.7 µM]
N[C@@H](Cc1ccccc1)C(=O)N1C[C@H]2C[C@@H](C1)c1cccc(=O)n1C2,"inconclusive: 7.08 µM [inhibitor, partial curve, poor fit]",–
NNc1n[nH]c(=S)n1N,active: 25.1 µM,–
Cc1ccccc1-n1nc(C)c2c1NC(=O)CSC2c1ccc(N(C)C)cc1 (stereo not drawn),–,inactive: -33.8%
O=c1[nH]c(=O)n(CCc2ccccc2)c(O)c1C=NCc1ccc2c(c1)OCO2,"inconclusive: 31.6 µM [inhibitor, single point]",–
CCOc1ccc(/C=C/c2nc(C#N)c(NCc3ccccc3)o2)cc1,"inconclusive: 7.08 µM [inhibitor, single point]",–
COc1ccc(-n2c(-c3ccco3)nc3c(cnn3-c3ccc(Cl)cc3)c2=O)cc1,"inconclusive: 0.891 µM [inhibitor, full curve, poor fit]",–
Cc1ccc2c(c1)=C/C(=C\c1c(O)[nH]c(=O)[nH]c1=O)C(=O)N=2,"inconclusive: 7.94 µM [inhibitor, partial curve, poor fit]",–
CC(C)COC(=O)OCN1C(=O)CN(CCN2CC(=O)N(COC(=O)OCC(C)C)C(=O)C2)CC1=O,active: 12.6 µM,–
C=Cn1ccnc1P(=S)(c1cc(N(CC)CC)ns1)c1nccn1C=C,–,inactive: -9.17%
CCOC(=O)C(=O)NC1CCSC1=O (stereo not drawn),active: 50.1 µM,–
Cc1ccc2[nH]c3c(c2c1)CN(C(=O)CN1CCSCC1)CC3,"inconclusive: 28.2 µM [inhibitor, single point]",–
CC(=O)c1c(O)n(C2CCCCCC2)c(=O)[nH]c1=O,–,inconclusive: -57% [inhibitor]
C/C(O)=C(\C#N)C(=O)Nc1cc(Br)ccc1Br,"inconclusive: 891 nM [inhibitor, full curve] and inconclusive: 25.1 µM [inhibitor, partial curve, poor fit] and inconclusive: 15 µM [inhibitor, partial curve, poor fit]",–
O=c1c2ccccc2nc2n1CCS2(=O)=O,"inconclusive: 50.1 µM [inhibitor, partial curve, poor fit]",–
Cc1ccc(NC(=O)C2C3CCCC2C3c2ccccc2)c(C)c1 (stereo not drawn),"inconclusive: 31.6 µM [inhibitor, single point]",–
O=C(O)C1C2CCC(O2)C1C(=O)Nc1ccc(Cl)cc1 (stereo not drawn),–,inactive: 12.7%
Cc1ccc(-n2c(-c3nn(C)c(C)c3Cl)n[nH]c2=S)cc1,"inconclusive: 1.58 µM [inhibitor, full curve, poor fit]",–
N#CC1=C(N)Oc2n[nH]c(-c3cccs3)c2C1c1ccco1 (stereo not drawn),"inconclusive: 6.31 µM [inhibitor, single point]",–
COc1ccc(OC)c(NP(=O)(Oc2ccccc2)Oc2ccccc2)c1,"inconclusive: 89.1 µM [inhibitor, single point]",–
CCCC[N+]12CCC(CC1)C(=C(c1ccccc1)c1ccccc1)C2,active: 10 µM,–
CN(C)[C@@H]1C(=O)C(C(N)=O)=C(O)[C@@]2(O)C(=O)C3=C(O)c4c(O)cccc4[C@@](C)(O)C3[C@H](O)C12 (stereo partly drawn),active: 4.47 µM,–

Structure (SMILES),Potency,"activity, negative = inhibition"
COc1ccc(N2C(=O)NC(=O)/C(=C\c3ccc([N+](=O)[O-])s3)C2=O)cc1,active: 7.94 µM,–
COc1ccc(CCNC(C)CCc2ccc(OC)cc2)cc1 (stereo not drawn),"inconclusive: 79.4 µM [inhibitor, partial curve, poor fit]",–
COc1ccc(S(=O)(=O)Cc2ccc(C(=O)N3CCC4(CC3)OCCO4)o2)cc1,"inconclusive: 100 µM [inhibitor, single point]",–
O=C(c1ccccc1F)c1cn(Cc2ccc(F)cc2)c2ccccc12,–,inactive: -1.93%
CC(=O)Nc1ccc(C(=O)C(Cc2ccccc2)N(C)C)cc1 (stereo not drawn),"inconclusive: 89.1 µM [inhibitor, single point]",–
Cn1c(C(=O)N2CCC(C(=O)N3CCC4(CC3)OCCO4)CC2)cc2sccc21,–,inactive: -21% [at 102 µM]
CN1CCN(Cc2ccc(Br)s2)CC1,active: 3.98 µM,–
CNS(=O)(=O)c1ccc(N=Cc2c(O)n(-c3cccc(C)c3)c(=O)[nH]c2=O)cc1,"inconclusive: 79.4 µM [inhibitor, partial curve, poor fit]",–
CCn1c(C)[n+](CC)c2ccc(S(=O)(=O)NC)cc21,"inconclusive: 35.5 µM [inhibitor, partial curve, poor fit]",–
CCCc1nn(C)c2c1C(c1ccncc1)C(C#N)=C(N)O2 (stereo not drawn),"inconclusive: 35.5 µM [inhibitor, single point]",–
O=C(c1ccccc1)c1ccc(N=Nc2c(O)[nH]c(=O)[nH]c2=O)cc1,"inconclusive: 31.6 µM [inhibitor, partial curve]",–
CCC(C)NC(=O)c1c(N)n(CC2CCCO2)c2nc3ccccc3nc12 (stereo not drawn),–,inactive: 211% [at 102 µM]
COc1ccc(OC)c(N2C(=O)NC(=O)C(CCc3ccncc3)(CCc3ccncc3)C2=O)c1,"inconclusive: 39.8 µM [inhibitor, single point]",–
O=c1c2ccccc2nc(-c2ccc(Cl)cc2Cl)n1-c1ccncc1,–,inactive: -5.79%
CCc1ccc(-n2c(O)c(/C=N/NC(=O)c3ccncc3)c(=O)[nH]c2=O)cc1,–,inactive: 8.35% [at 102 µM]
CCCCN1C(=O)NC(=O)C2(Cc3cc(C)ccc3N(C)C2)C1=O (stereo not drawn),"inconclusive: 3.55 µM [inhibitor, partial curve, poor fit]",–
COc1ccc(NC(=O)N2CCC3(CC2)CCN(C(=O)Oc2ccccc2)CC3)cc1,–,inactive: 12.8% [at 12.7 µM]
Cc1ccc(N2C(=O)NC(=O)/C(=C/c3cnc(-c4ccccc4)nc3)C2=O)cc1C,active: 10 µM,–
NC1CCc2cc(O)c(O)cc2C1 (stereo not drawn),active: 891 nM and active: 1.12 µM and active: 1.5 µM,–
CCN(CC)c1ccc([N+](=O)[O-])c2cccnc12,"inconclusive: 14.1 µM [inhibitor, partial curve, poor fit]",–
CCCCN1C(=O)NC(=O)/C(=C/c2cnc(SC)nc2)C1=O,active: 10 µM,–
C[C@]12CC[C@H]3C(=CCc4cc(O)ccc43)[C@@H]1CCC2=O,–,inactive: -18.2%
